Reference: patent publication US6528630B1 (priority 1997, dated 2003)

What was measured:
[1] = biological target: human neuronal calcium channel α1D and β1 subunits (Homo sapiens, UniProt Q01668); assay: Two-electrode voltage clamp of Xenopus oöcytes injected with α1D and β1 transcripts; settings: two of the four oöcytes
[2] = biological target: T1, human neuronal calcium channel α1D, α2 and β1 subunits (Homo sapiens, UniProt Q01668); format: cell-based; set-up: The full-length α1D cDNA from pVDCCIII(A); expressed in transfected cells; host or cells: HEK 293 (transient)
[3] = biological target: T1, human neuronal calcium channel α1D, α2 and β1 subunits; settings: 1 μM Bay K 8644

T1 sequence (Q01668 whole entry): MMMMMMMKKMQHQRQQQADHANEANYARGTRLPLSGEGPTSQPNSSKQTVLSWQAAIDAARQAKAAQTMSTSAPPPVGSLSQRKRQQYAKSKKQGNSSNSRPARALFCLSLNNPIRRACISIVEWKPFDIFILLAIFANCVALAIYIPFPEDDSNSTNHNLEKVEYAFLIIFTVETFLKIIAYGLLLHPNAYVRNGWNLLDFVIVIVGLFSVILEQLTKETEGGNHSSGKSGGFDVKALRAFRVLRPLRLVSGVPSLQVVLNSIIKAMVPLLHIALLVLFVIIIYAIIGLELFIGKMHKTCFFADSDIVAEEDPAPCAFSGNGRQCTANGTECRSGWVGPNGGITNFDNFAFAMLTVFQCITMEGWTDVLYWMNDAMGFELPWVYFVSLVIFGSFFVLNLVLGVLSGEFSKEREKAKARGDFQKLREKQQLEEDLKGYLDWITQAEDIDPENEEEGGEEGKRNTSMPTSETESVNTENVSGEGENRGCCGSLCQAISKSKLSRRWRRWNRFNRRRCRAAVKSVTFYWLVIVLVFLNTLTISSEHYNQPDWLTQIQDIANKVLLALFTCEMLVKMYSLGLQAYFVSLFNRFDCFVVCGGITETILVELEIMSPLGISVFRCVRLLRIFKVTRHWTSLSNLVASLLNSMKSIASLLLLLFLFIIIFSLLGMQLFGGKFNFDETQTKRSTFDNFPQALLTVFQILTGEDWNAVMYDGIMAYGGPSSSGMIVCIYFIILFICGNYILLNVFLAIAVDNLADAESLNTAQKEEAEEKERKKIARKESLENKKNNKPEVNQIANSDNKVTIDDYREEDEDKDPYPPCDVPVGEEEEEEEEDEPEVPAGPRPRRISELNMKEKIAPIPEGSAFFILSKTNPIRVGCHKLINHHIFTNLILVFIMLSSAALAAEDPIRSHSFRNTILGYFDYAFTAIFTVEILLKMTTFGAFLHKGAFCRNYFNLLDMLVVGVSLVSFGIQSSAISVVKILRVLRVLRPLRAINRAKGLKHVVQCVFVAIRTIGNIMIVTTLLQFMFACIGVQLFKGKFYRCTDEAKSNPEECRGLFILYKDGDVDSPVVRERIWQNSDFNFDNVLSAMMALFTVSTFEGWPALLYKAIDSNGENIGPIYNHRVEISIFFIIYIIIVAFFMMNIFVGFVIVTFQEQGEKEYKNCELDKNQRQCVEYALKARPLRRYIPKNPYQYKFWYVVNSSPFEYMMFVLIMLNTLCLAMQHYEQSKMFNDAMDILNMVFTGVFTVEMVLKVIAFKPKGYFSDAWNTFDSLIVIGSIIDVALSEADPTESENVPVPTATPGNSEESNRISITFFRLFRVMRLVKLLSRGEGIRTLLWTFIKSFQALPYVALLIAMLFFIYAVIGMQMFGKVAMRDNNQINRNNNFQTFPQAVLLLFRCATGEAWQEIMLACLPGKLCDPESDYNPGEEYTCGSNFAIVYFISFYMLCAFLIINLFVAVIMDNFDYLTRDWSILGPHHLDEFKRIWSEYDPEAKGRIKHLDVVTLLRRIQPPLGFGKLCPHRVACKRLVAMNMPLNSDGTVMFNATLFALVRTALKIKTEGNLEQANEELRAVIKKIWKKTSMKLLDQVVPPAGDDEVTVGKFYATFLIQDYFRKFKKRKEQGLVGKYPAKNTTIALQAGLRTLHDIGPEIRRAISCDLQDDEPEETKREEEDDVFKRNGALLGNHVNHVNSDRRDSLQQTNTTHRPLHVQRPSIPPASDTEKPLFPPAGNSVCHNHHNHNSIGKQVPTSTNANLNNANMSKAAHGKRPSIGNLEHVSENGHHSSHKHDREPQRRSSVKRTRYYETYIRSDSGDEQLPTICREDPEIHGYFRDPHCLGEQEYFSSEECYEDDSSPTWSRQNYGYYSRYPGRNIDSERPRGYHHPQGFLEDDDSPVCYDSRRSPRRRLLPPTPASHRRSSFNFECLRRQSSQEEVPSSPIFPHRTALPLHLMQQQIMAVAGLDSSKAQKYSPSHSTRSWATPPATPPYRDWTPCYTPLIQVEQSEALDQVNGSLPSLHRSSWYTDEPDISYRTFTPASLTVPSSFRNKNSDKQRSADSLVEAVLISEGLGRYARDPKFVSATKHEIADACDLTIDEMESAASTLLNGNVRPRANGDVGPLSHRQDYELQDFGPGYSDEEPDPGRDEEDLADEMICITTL
Chain of human neuronal calcium channel α1D and β1 subunits (Q01668 10-2161): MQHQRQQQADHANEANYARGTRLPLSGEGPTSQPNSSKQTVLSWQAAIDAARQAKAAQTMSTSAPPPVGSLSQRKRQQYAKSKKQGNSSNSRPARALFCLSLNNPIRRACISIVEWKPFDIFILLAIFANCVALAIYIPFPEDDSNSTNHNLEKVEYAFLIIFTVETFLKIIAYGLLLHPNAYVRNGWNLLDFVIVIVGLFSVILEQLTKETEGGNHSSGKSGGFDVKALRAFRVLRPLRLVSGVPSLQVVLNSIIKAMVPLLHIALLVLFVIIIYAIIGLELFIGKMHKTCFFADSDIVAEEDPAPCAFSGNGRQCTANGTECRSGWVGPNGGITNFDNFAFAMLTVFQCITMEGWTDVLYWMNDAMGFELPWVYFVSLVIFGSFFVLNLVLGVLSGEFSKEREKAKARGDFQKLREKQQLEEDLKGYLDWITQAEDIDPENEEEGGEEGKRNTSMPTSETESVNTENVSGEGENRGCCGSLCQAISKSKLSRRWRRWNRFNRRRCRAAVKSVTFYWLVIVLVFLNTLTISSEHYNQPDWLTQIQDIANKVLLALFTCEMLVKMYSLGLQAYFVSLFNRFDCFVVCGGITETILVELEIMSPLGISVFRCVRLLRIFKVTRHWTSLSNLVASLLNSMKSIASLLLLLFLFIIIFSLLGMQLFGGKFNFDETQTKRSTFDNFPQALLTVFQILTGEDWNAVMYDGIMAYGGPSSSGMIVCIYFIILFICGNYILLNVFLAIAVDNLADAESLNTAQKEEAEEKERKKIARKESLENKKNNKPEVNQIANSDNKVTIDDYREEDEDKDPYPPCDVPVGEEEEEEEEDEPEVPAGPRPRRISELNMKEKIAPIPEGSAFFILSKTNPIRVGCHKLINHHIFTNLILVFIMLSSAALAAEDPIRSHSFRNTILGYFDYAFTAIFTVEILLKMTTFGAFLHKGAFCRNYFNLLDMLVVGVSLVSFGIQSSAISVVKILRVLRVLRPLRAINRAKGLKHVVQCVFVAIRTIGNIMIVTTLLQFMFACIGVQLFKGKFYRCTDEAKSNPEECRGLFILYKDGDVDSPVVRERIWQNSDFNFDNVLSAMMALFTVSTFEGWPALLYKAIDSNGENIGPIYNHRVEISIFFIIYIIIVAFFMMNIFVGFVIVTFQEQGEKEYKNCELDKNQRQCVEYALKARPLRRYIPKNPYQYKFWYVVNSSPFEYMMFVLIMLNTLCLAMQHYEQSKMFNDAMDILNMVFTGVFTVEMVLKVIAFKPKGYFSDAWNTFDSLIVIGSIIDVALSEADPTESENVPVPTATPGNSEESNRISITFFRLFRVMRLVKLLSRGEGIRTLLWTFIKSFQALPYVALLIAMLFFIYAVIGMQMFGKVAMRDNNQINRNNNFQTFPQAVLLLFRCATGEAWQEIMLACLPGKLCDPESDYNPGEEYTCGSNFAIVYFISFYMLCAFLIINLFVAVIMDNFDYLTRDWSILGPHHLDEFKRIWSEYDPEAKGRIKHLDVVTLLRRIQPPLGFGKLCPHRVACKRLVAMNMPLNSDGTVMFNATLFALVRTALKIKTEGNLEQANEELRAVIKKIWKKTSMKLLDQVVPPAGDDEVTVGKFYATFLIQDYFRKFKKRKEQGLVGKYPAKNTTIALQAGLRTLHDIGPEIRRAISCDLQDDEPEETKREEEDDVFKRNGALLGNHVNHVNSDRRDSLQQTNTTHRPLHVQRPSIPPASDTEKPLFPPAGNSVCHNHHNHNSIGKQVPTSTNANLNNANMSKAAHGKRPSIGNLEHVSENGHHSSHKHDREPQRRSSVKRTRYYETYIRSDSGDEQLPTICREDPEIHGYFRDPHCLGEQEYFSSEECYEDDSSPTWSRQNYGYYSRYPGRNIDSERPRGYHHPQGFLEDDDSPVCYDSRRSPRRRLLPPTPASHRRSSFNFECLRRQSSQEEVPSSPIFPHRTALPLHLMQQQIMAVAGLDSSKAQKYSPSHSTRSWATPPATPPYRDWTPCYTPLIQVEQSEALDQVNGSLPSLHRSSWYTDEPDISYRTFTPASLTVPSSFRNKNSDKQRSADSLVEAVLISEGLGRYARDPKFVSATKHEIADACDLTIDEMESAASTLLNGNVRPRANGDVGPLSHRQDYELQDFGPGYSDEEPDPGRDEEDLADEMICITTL
Chain of human neuronal calcium channel α1D and β1 subunits (Q02641 1-478 isoform Q02641-3 partner): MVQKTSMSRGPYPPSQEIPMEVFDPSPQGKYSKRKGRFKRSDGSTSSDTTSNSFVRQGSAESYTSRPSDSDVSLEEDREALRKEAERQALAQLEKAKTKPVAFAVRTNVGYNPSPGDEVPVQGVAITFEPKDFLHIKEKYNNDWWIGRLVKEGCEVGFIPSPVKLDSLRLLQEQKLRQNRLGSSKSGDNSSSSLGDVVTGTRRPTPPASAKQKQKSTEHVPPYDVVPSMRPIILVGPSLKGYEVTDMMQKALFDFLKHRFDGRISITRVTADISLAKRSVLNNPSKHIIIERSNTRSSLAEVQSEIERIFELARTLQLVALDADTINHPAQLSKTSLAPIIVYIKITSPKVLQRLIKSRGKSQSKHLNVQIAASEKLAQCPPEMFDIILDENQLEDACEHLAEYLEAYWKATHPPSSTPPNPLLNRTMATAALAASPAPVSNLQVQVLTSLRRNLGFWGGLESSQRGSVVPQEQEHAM

In the case of `COC(=O)C1=C(C)NC(C)=C([N+](=O)[O-])C1c1ccccc1C(F)(F)F` (stereo not shown) [Bay K 8644], the “sensitivity of Ba2+ currents to Bay K 8644 compared with α1D, α2 and β1 oöcytes” value [1] is reported as “similar”, the “effect on inward barium current” value [2] is reported as “significantly enhanced in magnitude” and the “largest inward barium current” value [2] is reported as ~160 pA. For the same molecule, the tail currents [2] was “Pronounced tail currents”, the “shift of current-voltage relation” value [3] was “about −10 mV” and the tail current [3] was “augmented and prolonged tail current”. For the same molecule, the “barium current during application” value ([3]; depolarized to −10 mV from holding potential −90 mV (approximately 35 pA in its absence)) was “approximately 75 pA”.
